Measured values from PubChem BioAssay (Tox21).
Inconclusive results, whose numbers are uncertain, are shown with a selection of clear calls. For part of these data: Where the call is inconclusive, the potency comes from a doubtful curve fit. Calls of active or inactive are those of the source. Unless noted, the call rests on the fitted dose curve; in most records, active means well fitted curve in the direction sought with a large enough effect in the repeat runs; inconclusive means weak or mixed curves; inactive means no such curve, though single readings can be large; an effect the other way counts as inactive or inconclusive.

Tests used:
[1] = target: Estrogen receptor beta (Homo sapiens) (UniProt Q92731); test: qHTS assay to identify small molecule antagonists of the estrogen receptor beta (ER-beta) signaling pathway (AID 1259378; active means well fitted inhibition curve with a large enough effect in the signal ratio in the repeat runs, not every such curve was filed as active; inconclusive means weak or mixed curves, or effect the other way; inactive means no such curve, though single readings can be large or run the other way; the % refers to the signal ratio; further: potency means the concentration at half of the fitted maximal effect; on activity, negative = inhibition: on the % scale 0 is the no-effect control and ±100 the full control effect); settings: ER-beta-UAS-bla HEK293T, beta-lactamase FRET ratio, 16 h; activity, negative = inhibition: at 92.4 µM (top of the series) unless noted
Chain of UniProt Q92731 (Q92731 whole entry, looked up): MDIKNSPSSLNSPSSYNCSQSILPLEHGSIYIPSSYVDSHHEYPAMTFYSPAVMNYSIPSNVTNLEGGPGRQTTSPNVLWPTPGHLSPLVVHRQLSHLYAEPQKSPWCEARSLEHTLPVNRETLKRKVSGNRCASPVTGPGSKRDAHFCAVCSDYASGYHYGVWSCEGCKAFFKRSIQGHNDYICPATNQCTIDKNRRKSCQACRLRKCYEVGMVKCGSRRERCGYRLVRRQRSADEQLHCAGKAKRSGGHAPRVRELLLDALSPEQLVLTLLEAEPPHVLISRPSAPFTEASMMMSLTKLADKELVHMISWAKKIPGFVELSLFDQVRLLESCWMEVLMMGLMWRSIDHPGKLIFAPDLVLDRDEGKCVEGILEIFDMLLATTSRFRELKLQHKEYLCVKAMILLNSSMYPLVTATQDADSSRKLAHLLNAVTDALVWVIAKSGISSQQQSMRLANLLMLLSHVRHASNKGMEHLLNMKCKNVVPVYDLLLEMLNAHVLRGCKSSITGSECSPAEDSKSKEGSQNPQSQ
In short: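 ER-beta-UAS-bla HEK293T (GripTite) cells in 2% charcoal-stripped FBS medium were preincubated 6 hr at 37C, dosed with compound, then stimulated with 1 nM E2 (final) for 16 hr; beta-lactamase reporter read by B/G FRET fluorescence after 2 hr substrate loading.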

[2] = qHTS assay to identify small molecule agonists or antagonists of the thyroid stimulating hormone receptor (TSHR) signaling pathway - wild type cell line counter screen (AID 1259384; calls by dose curve; further: potency means the concentration at half of the fitted maximal effect; on cAMP activity change: on the % scale 0 is the no-effect control and ±100 the full control effect); settings: HEK293 wild type, cAMP HTRF counter-screen; cAMP activity change: at 92.4 µM (top of the series), hits give high values unless noted
In short: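 Wild-type HEK293 cells were plated 18 h at 37 C/5% CO2, pin-dosed with compound plus Ro20-1724 medium, held 30 min at room temperature, then given cAMP-d2 and anti-cAMP-cryptate; fluorescence was read after 1 h. Fifteen concentrations, triplicate.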

[3] = target: Thyrotropin receptor (Homo sapiens) (UniProt P16473); test: qHTS assay to identify small molecule antagonists of the thyroid stimulating hormone receptor (TSHR) signaling pathway (AID 1259385; calls by dose curve; further: nearly all actives have a fitted effect of over 20% in size; further: potency means the concentration at half of the fitted maximal effect); settings: TSHR-HEK293 cAMP HTRF, TSH-stimulated antagonist mode; activity change, negative = inhibition: at 92.4 µM (top of the series) unless noted
Chain of UniProt P16473 (P16473 whole entry, looked up): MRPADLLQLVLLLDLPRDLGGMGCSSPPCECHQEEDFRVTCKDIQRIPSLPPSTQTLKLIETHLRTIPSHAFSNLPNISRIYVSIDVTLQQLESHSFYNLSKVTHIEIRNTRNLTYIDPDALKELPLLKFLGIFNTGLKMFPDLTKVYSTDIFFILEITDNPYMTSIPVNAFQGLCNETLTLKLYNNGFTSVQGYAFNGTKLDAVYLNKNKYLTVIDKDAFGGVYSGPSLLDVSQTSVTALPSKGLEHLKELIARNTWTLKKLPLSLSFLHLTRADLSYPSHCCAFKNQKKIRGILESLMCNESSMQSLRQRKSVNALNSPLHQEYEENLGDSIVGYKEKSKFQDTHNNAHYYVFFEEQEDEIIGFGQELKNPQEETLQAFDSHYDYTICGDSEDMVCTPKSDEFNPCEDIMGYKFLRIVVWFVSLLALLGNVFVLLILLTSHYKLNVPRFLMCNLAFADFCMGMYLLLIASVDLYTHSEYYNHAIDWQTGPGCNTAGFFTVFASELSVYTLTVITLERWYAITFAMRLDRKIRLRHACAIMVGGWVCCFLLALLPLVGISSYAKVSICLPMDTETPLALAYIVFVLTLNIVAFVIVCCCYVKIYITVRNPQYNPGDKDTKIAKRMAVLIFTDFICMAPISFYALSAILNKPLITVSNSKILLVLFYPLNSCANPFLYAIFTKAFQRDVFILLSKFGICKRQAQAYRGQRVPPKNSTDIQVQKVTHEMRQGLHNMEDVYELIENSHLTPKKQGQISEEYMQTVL
In short: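 TSHR-HEK293 cells were plated and held 18 h at 37C/5% CO2, then given compound plus Ro20-1724 and stimulated with TSH at 1.5 ng/mL final. After 30 min at room temperature, cAMP was detected with cAMP-d2/anti-cAMP-cryptate (1 h) by fluorescence.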

[4] = target: Progesterone receptor (Homo sapiens) (UniProt P06401); test: qHTS assay to identify small molecule agonists of the progesterone receptor (PR) signaling pathway (AID 1346784; calls by dose curve; further: nearly all actives have a fitted effect of over 30% in size; further: potency means the concentration at half of the fitted maximal effect; on activation: on the % scale 0 is the no-effect control and ±100 the full control effect); settings: PR-UAS-bla HEK293T, beta-lactamase FRET ratio, 16 h; activation: at 92.4 µM (top of the series) unless noted
Chain of UniProt P06401 (P06401 whole entry, looked up): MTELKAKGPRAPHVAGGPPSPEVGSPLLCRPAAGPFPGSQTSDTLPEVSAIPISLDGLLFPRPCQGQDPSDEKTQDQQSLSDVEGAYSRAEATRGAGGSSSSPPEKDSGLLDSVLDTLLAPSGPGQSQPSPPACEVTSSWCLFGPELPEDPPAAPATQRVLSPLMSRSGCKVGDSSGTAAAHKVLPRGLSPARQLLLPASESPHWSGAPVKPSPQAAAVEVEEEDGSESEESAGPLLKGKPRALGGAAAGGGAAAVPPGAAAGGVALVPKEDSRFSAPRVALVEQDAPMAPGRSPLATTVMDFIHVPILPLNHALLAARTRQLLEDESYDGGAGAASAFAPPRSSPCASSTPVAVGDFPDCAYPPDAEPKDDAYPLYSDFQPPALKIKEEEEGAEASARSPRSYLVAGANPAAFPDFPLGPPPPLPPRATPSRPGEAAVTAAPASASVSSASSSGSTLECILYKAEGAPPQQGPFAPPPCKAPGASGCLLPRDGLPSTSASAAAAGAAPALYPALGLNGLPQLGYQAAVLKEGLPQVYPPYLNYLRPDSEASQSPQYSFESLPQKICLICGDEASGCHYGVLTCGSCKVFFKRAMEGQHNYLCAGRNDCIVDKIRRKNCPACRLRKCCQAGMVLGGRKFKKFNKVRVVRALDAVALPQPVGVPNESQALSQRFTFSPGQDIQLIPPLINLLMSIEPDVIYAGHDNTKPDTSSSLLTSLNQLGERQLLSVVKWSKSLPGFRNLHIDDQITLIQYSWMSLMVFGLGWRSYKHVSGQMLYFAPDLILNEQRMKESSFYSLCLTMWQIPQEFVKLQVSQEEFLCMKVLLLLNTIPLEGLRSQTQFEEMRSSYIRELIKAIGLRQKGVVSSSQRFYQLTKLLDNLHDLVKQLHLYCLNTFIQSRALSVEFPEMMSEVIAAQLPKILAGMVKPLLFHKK
In short: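 Using charcoal-stripped serum (2%) to limit endogenous steroids, PR-UAS-bla HEK 293T cells received compounds for 16 hr at 37C after 6 hr plating; beta-lactamase FRET fluorescence was recorded following 2 hr substrate loading at room temperature.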

[5] = target: Progesterone receptor (Homo sapiens) (UniProt P06401); test: qHTS assay to identify small molecule antagonists of the progesterone receptor (PR) signaling pathway (AID 1346795; active means well fitted inhibition curve with a large enough effect in the signal ratio in the repeat runs, not every such curve was filed as active; inconclusive means weak or mixed curves; the % refers to the signal ratio; further: potency means the concentration at half of the fitted maximal effect; on activity change, negative = inhibition: on the % scale 0 is the no-effect control and ±100 the full control effect); settings: PR-UAS-bla HEK293T, beta-lactamase FRET ratio, 16 h; activity change, negative = inhibition: at 92.4 µM (top of the series) unless noted
In short: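 Inhibition of R5020-induced (1 nM final) beta-lactamase reporter signal in PR-UAS-bla HEK293T cells was scored by FRET fluorescence after overnight (16 hr) compound treatment.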

[6] = qHTS assay to identify small molecule antagonists of the progesterone receptor (PR) signaling pathway - cell viability counter screen (AID 1346798); further: potency means the concentration at half of the fitted maximal effect; nearly all actives have a fitted effect of over 50% in size
In short: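 ATP content as viability readout: CellTiter-Glo luminescence, 30 min room temperature, in PR-UAS-bla HEK293T cells after 16 hr compound/R5020 treatment at 37C and 5% CO2.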

[7] = qHTS assay to identify small molecule agonists of the progesterone receptor (PR) signaling pathway - cell viability counter screen (AID 1346799; calls by dose curve; further: potency means the concentration at half of the fitted maximal effect; nearly all actives have a fitted effect of over 45% in size)
In short: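 Cytotoxicity in PR-bla HEK293T cells: 16 h compound, 37C; CellTiter-Glo added post-FRET read; luminescence after 30 min RT.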

[8] = qHTS assay to identify small molecule antagonists of the TGF-beta/Smad signaling pathway (AID 1346924; active means well fitted inhibition curve with a large enough effect in the signal ratio in the repeat runs, not every such curve was filed as active; inconclusive means weak or mixed curves; the % refers to the signal ratio; further: potency means the concentration at half of the fitted maximal effect); settings: SBE-bla HEK293T, TGF-beta/Smad reporter, beta-lactamase ratio; activity, negative = inhibition: at 76.8 µM (top of the series) unless noted
In short: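 SBE-bla HEK 293T cells were plated overnight, then received compound in DMSO plus TGF-beta1 (added as a 0.25 ng/mL solution) and were incubated 5 h at 37 C. Beta-lactamase reporter activity was read after 2 h at room temperature with LiveBLAzer B/G FRET substrate (ex 405, em 460/530 nm).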

[9] = qHTS assay to identify small molecule antagonists of the estrogen receptor beta (ER-beta) signaling pathway - cell viability counter screen (AID 1259382); further: potency means the concentration at half of the fitted maximal effect; nearly all actives have a fitted effect of over 55% in size
In short: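 Following a 6 hr plating period, HEK293T cells carrying a UAS-driven beta-lactamase reporter under ER-beta control received compounds and 1nM E2 (final). After 16 hr at 37C and 2 hr substrate loading, CellTiter-Glo luminescence indicated viability.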

[10] = qHTS assay to identify small molecule agonists of the estrogen receptor alpha (ER-alpha) signaling pathway in the presence of an antagonist - cell viability counter screen (AID 1259386);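 further: potency means the concentration at half of the fitted maximal effect; cells exposed to compounds for 22 h at 37 °C before the viability read; nearly all actives have a fitted effect of over 30% in size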
In short: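 Cells are starved of estrogens for 5 days in charcoal-stripped serum, seeded for 24hr and co-treated with ICI-182,780 (10.0nM final) and test compounds. After 22hr at 37C, viability is read as CellTiter-Fluor fluorescence.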

[11] = qHTS assay to identify small molecule agonists of the estrogen receptor beta (ER-beta) signaling pathway - cell viability counter screen (AID 1259380); further: potency means the concentration at half of the fitted maximal effect; nearly all actives have a fitted effect of over 30% in size
In short: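 Same-well viability counter screen. Cells: ER-beta-UAS-bla HEK293T, plated 6 hr before compound, in 2% charcoal-stripped FBS. Compound exposure 16 hr, 37C; viability by CellTiter-Glo luminescence after 30 min at room temperature.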

[12] = qHTS assay to identify small molecule agonists of the TGF-beta/Smad signaling pathway - cell viability counter screen (AID 1346829); further: potency means the concentration at half of the fitted maximal effect; nearly all actives have a fitted effect of over 45% in size
In short: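 Here the cytotoxicity of library compounds is measured in SBE-bla HEK 293T cells treated for 5 hr, using CellTiter-Glo added to wells already read for the beta-lactamase reporter.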

[13] = target: Thyrotropin-releasing hormone receptor (Homo sapiens) (UniProt P34981); test: qHTS assay to identify small molecule antagonists of the thyrotropin-releasing hormone receptor (TRHR) signaling pathway (AID 1346877; active means well fitted inhibition curve with a large enough effect in the repeat runs, not every such curve was filed as active; inconclusive means weak or mixed curves; further: potency means the concentration at half of the fitted maximal effect)
Chain of UniProt P34981 (P34981 whole entry, looked up): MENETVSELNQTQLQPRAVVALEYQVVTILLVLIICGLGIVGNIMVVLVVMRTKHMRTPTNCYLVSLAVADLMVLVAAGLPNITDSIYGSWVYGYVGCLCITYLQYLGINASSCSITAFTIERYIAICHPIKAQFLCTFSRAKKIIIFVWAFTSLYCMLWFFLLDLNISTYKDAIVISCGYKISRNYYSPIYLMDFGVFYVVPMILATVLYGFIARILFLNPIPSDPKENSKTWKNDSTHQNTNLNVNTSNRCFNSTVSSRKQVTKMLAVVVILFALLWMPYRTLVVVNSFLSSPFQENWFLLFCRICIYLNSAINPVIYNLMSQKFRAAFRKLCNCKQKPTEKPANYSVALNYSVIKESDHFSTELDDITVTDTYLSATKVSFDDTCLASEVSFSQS
In short: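 Cells (TRHR-HEK293) are plated and kept 18 h at 37 °C/5% CO2. A calcium-sensitive dye is added for 2 h, compound follows for 5 min at room temperature, and TRH is then given at 1 nM final.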

[14] = target: Thyrotropin-releasing hormone receptor (Homo sapiens) (UniProt P34981); test: qHTS assay to identify small molecule agonists of the thyrotropin-releasing hormone receptor (TRHR) signaling pathway (AID 1346891; calls by dose curve; further: potency means the concentration at half of the fitted maximal effect)
In short: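 In 1536-format, 1500 TRHR-Hek293 cells per well grew 18 h, took up calcium dye for 2 h at 37 °C, received compound, and were read kinetically; 15-point titrations, triplicates.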

[15] = target: Estrogen receptor (Homo sapiens) (UniProt P03372); test: qHTS assay to identify small molecule agonists of the estrogen receptor alpha (ER-alpha) signaling pathway in the presence of an antagonist (AID 1259383; calls by dose curve; further: top concentration of the series differs between compounds; on the % scale 0 is the no-effect control and ±100 the full control effect; nearly all actives have a fitted effect of over 15% in size)
Chain of UniProt P03372 (P03372 whole entry, looked up): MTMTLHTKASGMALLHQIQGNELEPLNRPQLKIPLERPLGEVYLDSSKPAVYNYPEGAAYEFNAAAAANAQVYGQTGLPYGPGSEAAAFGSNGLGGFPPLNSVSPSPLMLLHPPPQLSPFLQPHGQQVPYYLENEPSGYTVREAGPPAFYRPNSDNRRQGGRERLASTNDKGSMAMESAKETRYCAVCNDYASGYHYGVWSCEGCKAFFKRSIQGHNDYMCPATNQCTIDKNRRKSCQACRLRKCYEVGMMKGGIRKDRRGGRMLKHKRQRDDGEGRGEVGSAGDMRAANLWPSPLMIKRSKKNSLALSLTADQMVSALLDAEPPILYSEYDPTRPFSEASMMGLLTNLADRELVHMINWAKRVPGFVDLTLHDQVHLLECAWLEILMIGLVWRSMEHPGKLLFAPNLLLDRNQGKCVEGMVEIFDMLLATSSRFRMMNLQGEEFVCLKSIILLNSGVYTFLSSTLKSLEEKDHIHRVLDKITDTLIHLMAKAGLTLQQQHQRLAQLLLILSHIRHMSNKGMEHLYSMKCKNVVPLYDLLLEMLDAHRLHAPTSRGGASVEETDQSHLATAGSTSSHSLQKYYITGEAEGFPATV
In short: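 Cells are hormone-deprived for 5 days (charcoal-stripped FBS, no phenol red), plated for 24hr, spiked with 10.0nM ICI-182,780, then dosed at 15 concentrations. After 22hr at 37C, ONE-Glo luminescence reports ERE-luciferase activity.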

[16] = qHTS assay to identify small molecule antagonists of the TGF-beta/Smad signaling pathway - cell viability counter screen (AID 1346824); further: potency means the concentration at half of the fitted maximal effect; nearly all actives have a fitted effect of over 50% in size
In short: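 SBE-bla HEK 293T cells were plated overnight at 37 C, then given compounds in DMSO plus TGF-beta1 (added as 0.25 ng/mL solution) for 5 hr. After the bla read, CellTiter-Glo was added to the same wells and luminescence read after 30 min at room temperature.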
Tags describe the fitted curve by direction and shape or compound fluorescence and quenching.

Oc1cc2c(cc1O)[C@H]1c3ccc(O)c(O)c3OC[C@@]1(O)C2
inconclusive: Potency [1] 31 µM | Potency [2] 22 µM [falling, partial curve] | Potency [3] 24.6 µM | Potency [4] 69.4 µM [falling, partial curve, poor fit] | Potency [5] 61.9 µM | Potency [6] 49.2 µM [rising, partial curve, poor fit] | Potency [7] 69.4 µM [rising, partial curve] | activity, negative = inhibition [8] 28.9%

COc1ccc2sc(C(=O)Nc3nnn[nH]3)c(OC(C)C)c2c1
active: Potency [5] 54.3 µM
inconclusive: activity, negative = inhibition [1] -57.4% | Potency [9] 5.43 µM [cytotoxic, full curve] | Potency [10] 21.6 µM [cytotoxic, partial curve] | Potency [7] 54.3 µM [cytotoxic, partial curve, poor fit] | activity, negative = inhibition [8] 1.04%

Cc1cc(O)ccc1O
inconclusive: cAMP activity change [2] -1.9% | Potency [3] 31 µM [falling, full curve] | Potency [10] 61.8 µM [cytotoxic, single point] | Potency [4] 61.8 µM [cytotoxic, partial curve, poor fit] | Potency [5] 69.4 µM [falling, single point] | Potency [6] 77.8 µM [cytotoxic, single point]
active: Potency [1] 55.1 µM | Potency [9] 61.8 µM

CCCCCCCCOc1ccc(C(=O)O)cc1
active: Potency [5] 48 µM
inconclusive: Potency [1] 34 µM [rising, partial curve] | Potency [11] 9.58 µM [cytotoxic, full curve] | Potency [6] 60.4 µM [rising, single point] | Potency [7] 67.8 µM

COc1c(N2C[C@@H]3CCCN[C@@H]3C2)c(F)cc2c(=O)c(C(=O)O)cn(C3CC3)c12
inactive: Potency [5]
inconclusive: activity, negative = inhibition [1] 24.5% [at 42.5 µM] | cAMP activity change [2] 1.91% [at 42.5 µM, hits give high values]

CC(CC1c2ccccc2CCc2ccccc21)CN(C)C (configuration not stated)
active: Potency [11] 33.5 µM | Potency [6] 23.7 µM
inconclusive: Potency [1] 23.7 µM [rising, partial curve, poor fit] | activity change, negative = inhibition [5] -35.8% [at 42.5 µM] | activity, negative = inhibition [8] -4.67% [at 35.3 µM]

O=C(Oc1ccccc1)c1cccc(C(=O)Oc2ccccc2)c1
active: Potency [5] 25.7 µM | Potency [6] 64.4 µM
inconclusive: Potency [1] 22.9 µM [fluorescent] | Potency [11] 72.3 µM [cytotoxic] | Potency [4] 64.4 µM [fluorescent] | Potency [7] 36.2 µM [rising, partial curve, poor fit] | Potency [8] 18.3 µM [fluorescent]

CC(C)c1ccc2c(c1)CC[C@H]1[C@](C)(CN)CCC[C@]21C
active: Potency [1] 61.1 µM | Potency [9] 61.1 µM
inconclusive: Potency [3] 68.6 µM [falling, single point] | Potency [6] 61.1 µM [cytotoxic, single point] | Potency [7] 68.6 µM [cytotoxic] | Potency [12] 54.9 µM [cytotoxic, single point] | Potency [13] 33.8 µM [inhibitor, single point] | Potency [14] 34.7 µM [activator] | activity, negative = inhibition [8] -29%

CC1(CN2CCC(n3c(=O)[nH]c4ccccc43)CC2)OCc2ccccc2-n2cccc21 (configuration not stated)
inactive: Potency [15]
inconclusive: Potency [1] 16.8 µM [rising, partial curve] | activation [4] -16.6% [at 42.5 µM] | Potency [5] 33.5 µM | Potency [6] 33.5 µM [cytotoxic, single point] | Potency [7] 33.5 µM [cytotoxic, single point] | activity, negative = inhibition [8] 2.34% [at 35.3 µM]

COc1ccccc1N1CCN(CC(O)COc2cccc3ccccc23)CC1 (configuration not stated)
active: Potency [1] 23.7 µM | Potency [11] 5.96 µM | Potency [7] 33.5 µM
inconclusive: Potency [5] 33.5 µM [single point] | Potency [6] 23.7 µM [cytotoxic, partial curve, poor fit]

OC[C@H]1O[C@@H](n2cnc3c(=S)nc[nH]c32)[C@H](O)[C@@H]1O
inconclusive: activity, negative = inhibition [1] -34.1% [at 42.5 µM] | Potency [9] 2.11 µM [cytotoxic, full curve] | Potency [5] 9.44 µM [falling, full curve] | Potency [6] 7.5 µM [cytotoxic, full curve] | Potency [7] 2.37 µM [cytotoxic, full curve] | Potency [16] 0.848 µM [cytotoxic, full curve] | Potency [12] 1.51 µM [cytotoxic, full curve] | activity, negative = inhibition [8] -38.8% [at 35.3 µM]
inactive: Potency [3]
